Laboratory results: PubChem BioAssay AID485294 (National Center for Advancing Translational Sciences (NCATS), 2010)
Among all 370,000 compounds or so, about 150 (0.041%) were called active. The shares of active, inactive and inconclusive entries below differ from those in the screen. The call rests on the fitted dose curve; in most records, active means well fitted inhibition curve with a large enough effect; inconclusive means small, poorly fitted or top-dose-only effect; inactive means flat fitted curve, though single readings scatter. No potency is given beside an inconclusive call; the fits are too rough.

Biological target: Beta-lactamase (Escherichia coli (strain K12)) (UniProt P00811)
Test: qHTS Inhibitors of AmpC Beta-Lactamase (assay with detergent); further: nearly all actives have a fitted effect of over 25% in size
Conditions: AmpC hydrolysis of nitrocefin, absorbance 480 nm, 0.01% Triton; series mostly up to 114 µM
Outline: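 20 mM phosphate pH 7.0 + 0.01% (detergent screen) or 0.0001% Triton X-100; 5.3 nM AmpC reagent; cpd preinc 15 min RT; nitrocefin (800 uM stock) to start; A480 q20 s × 4 min; Activity was normalised to no-enzyme and no-compound control wells.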
Potency means the concentration at half of the fitted maximal effect; tags describe the fitted curve by direction and shape.

Chain of UniProt P00811 (P00811 whole entry, looked up): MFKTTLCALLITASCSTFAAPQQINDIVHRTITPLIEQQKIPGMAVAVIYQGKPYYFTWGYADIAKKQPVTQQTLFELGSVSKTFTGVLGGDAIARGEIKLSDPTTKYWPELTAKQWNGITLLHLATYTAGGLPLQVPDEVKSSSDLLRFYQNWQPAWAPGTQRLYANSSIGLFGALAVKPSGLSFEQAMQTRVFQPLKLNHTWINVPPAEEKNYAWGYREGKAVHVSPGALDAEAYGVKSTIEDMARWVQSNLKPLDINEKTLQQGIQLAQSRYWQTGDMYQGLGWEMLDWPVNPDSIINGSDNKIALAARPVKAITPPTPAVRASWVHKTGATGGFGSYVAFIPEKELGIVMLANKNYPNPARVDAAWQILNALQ

With `Clc1ccccc1C1NCc2ccccc2-n2cccc21` (centres undefined) as the molecule, how does the Potency read?
The Potency was “inactive”.

`CCCCOc1cccc(OCC(=O)Nc2nc3ccccc3[nH]2)c1` was tested. Which Potency did it give?
The Potency was inconclusive [inhibitor, full curve].

How did the Potency turn out when `COc1ccc(OC)c(CN2C(=O)c3ccccc3C2C(=O)NCc2cccnc2)c1` (centres undefined) was run?
Its Potency is inconclusive [inhibitor, full curve, poor fit].

Which Potency does the source give for `Cc1ccc(C)c(NC(=S)/C(=C(\[O-])c2ccc(OC(F)F)cc2)[n+]2ccccc2)c1` here?
The Potency was “inactive”.

For `Cc1nc(N2CCOCC2)nc(OCCN2CCOCC2)c1[N+](=O)[O-]`, which Potency is on record?
The Potency was inconclusive [inhibitor, full curve, poor fit].

`C[C@H](NC(=O)c1nc[nH]c1C(=O)NCc1ccccc1)C(=O)OCc1ccccc1` was tested. Which Potency did it give?
The Potency was inconclusive [inhibitor, partial curve, poor fit].

How did the Potency turn out when `CCc1ccc(-c2cc(C)no2)cc1S(=O)(=O)NCCCN1CCN(c2ccccc2)CC1` was run?
The Potency was “inactive”.

With `COc1cccc(NC(=O)c2ccccc2-c2ccccc2C(=O)O)c1` as the molecule, how does the Potency read?
The Potency was inconclusive [inhibitor, full curve, poor fit].

`CCOc1ccccc1/C=C(\NC(=O)c1ccccc1)C(=O)NCCC(=O)O` was tested. Which Potency did it give?
Its Potency is inconclusive [inhibitor, full curve].

`Cc1ccc(C(O)(CNCc2ccccc2)c2ccccc2)cc1` (centres undefined) was tested. Which Potency did it give?
Its Potency is “inactive”.

For `CCNC(=S)N(CCO)Cc1cc2cc3c(cc2[nH]c1=O)OCO3`, which Potency is on record?
Its Potency is “inactive”.

Which Potency does the source give for `COC(=O)c1ccccc1NC(=O)c1noc2c1CCC2` here?
The Potency was inconclusive [inhibitor, partial curve, poor fit].

Which Potency does the source give for `Cc1ccc2cc(/C=N/NC(=O)c3ccccc3[N+](=O)[O-])c(Cl)nc2c1` here?
The Potency was inconclusive [inhibitor, full curve, poor fit].

For `COc1ccc2c(c1)c(=O)c(C(=O)c1ccccc1)cn2CC(=O)Nc1ccc2c(c1)OCO2`, which Potency is on record?
The Potency was “inactive”.

`Cc1cccc(OCCSc2nncn2C)c1` was tested. Which Potency did it give?
The Potency was “inactive”.

How did the Potency turn out when `Cc1ccccc1N1CCN(C(=O)c2ccccc2NC(=O)C2CC=CCC2C(=O)O)CC1` (centres undefined) was run?
Its Potency is inconclusive [inhibitor, full curve, poor fit].

`Cc1cc(=O)oc2c(CN3CCN(C)CC3)c(O)c(Cl)cc12` was tested. Which Potency did it give?
The Potency was inconclusive [inhibitor, single point].

With `COC(=O)C1=C(C)N(Cc2ccco2)C(=O)N[C@H]1c1ccc(Br)cc1` as the molecule, how does the Potency read?
The Potency was inconclusive [inhibitor, partial curve, poor fit].

How did the Potency turn out when `Cc1cc(Br)cc(Cl)c1OC(=O)c1cnccn1` was run?
The Potency was inconclusive [inhibitor, single point].
